# Measurements taken from the supplement of paper PMC8728848.
# The other results are listed elsewhere or left out.
# B1: CVN-E41G (protein)
# chain: MHHHHHHENLYFQSGNFSQACYNSAIQGSVLTSTCIRTNGGYNTSSIDLNSVIANVDGSLKWQGSNFIETCRNTQLAGSSELAAECKTRAQQFVSTKINLDDHIAAIDGTLKYE
# What was measured:
# Assay in all cases: glycan array binding signal (z-score within array); higher = stronger binding
# Conditions in all cases: glycan notation: IUPAC condensed, linker removed; mutation: E41A
# [1] = biological target: Gal(b1-4)GlcNAc(b1-2)[Gal(b1-4)GlcNAc(b1-6)]Man(a1-6)[Gal(b1-4)GlcNAc(b1-2)Man(a1-3)]Man(b1-4)GlcNAc(b1-4)[Fuc(a1-6)]GlcNAc
# Method in brief: (§1)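 From the Consortium for Functional Glycomics database, 3228 arrays were curated, keeping only those whose protein sequence was available. Binding is given as a within-array Z-score averaged across arrays sharing a protein sequence and across linkers. Negative Z-scores can be read as non-binding.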
# [2] = biological target: Gal(b1-4)GlcNAc(b1-2)[Gal(b1-4)GlcNAc(b1-6)]Man(a1-6)[GlcNAc(b1-4)][Gal(b1-4)GlcNAc(b1-2)Man(a1-3)]Man(b1-4)GlcNAc(b1-4)GlcNAc
# Method in brief: as §1
# [3] = biological target: Gal(b1-4)GlcNAc(b1-2)[Gal(b1-4)GlcNAc(b1-6)]Man(a1-6)[GlcNAc(b1-4)][Gal(b1-4)GlcNAc(b1-2)[Gal(b1-4)GlcNAc(b1-4)]Man(a1-3)]Man(b1-4)GlcNAc(b1-4)[Fuc(a1-6)]GlcNAc
# Method in brief: as §1
# [4] = biological target: Gal(b1-4)GlcNAc(b1-3)Gal(b1-3)GalNAc
# Method in brief: as §1
# [5] = biological target: Gal(b1-4)GlcNAc(b1-3)Gal(b1-3)GlcNAc
# Method in brief: as §1
# [6] = biological target: Gal(b1-4)GlcNAc(b1-3)Gal(b1-4)Glc
# Method in brief: as §1
# [7] = biological target: Gal(b1-4)GlcNAc(b1-3)Gal(b1-4)GlcNAc
# Method in brief: as §1
# [8] = biological target: Gal(b1-4)GlcNAc(b1-3)Gal(b1-4)GlcNAc(b1-2)Man(a1-3)[Gal(b1-4)GlcNAc(b1-3)Gal(b1-4)GlcNAc(b1-2)Man(a1-6)]Man(b1-4)GlcNAc(b1-4)GlcNAc
# Method in brief: as §1
# [9] = biological target: Gal(b1-4)GlcNAc(b1-3)Gal(b1-4)GlcNAc(b1-2)Man(a1-3)[Gal(b1-4)GlcNAc(b1-3)Gal(b1-4)GlcNAc(b1-2)Man(a1-6)]Man(b1-4)GlcNAc(b1-4)[Fuc(a1-6)]GlcNAc
# Method in brief: as §1
# [10] = biological target: Gal(b1-4)GlcNAc(b1-3)Gal(b1-4)GlcNAc(b1-2)[Gal(b1-4)GlcNAc(b1-3)Gal(b1-4)GlcNAc(b1-6)]Man(a1-6)[Gal(b1-4)GlcNAc(b1-3)Gal(b1-4)GlcNAc(b1-2)Man(a1-3)]Man(b1-4)GlcNAc(b1-4)GlcNAc
# Method in brief: as §1
# [11] = biological target: Gal(b1-4)GlcNAc(b1-3)Gal(b1-4)GlcNAc(b1-2)[Gal(b1-4)GlcNAc(b1-3)Gal(b1-4)GlcNAc(b1-6)]Man(a1-6)[Gal(b1-4)GlcNAc(b1-3)Gal(b1-4)GlcNAc(b1-2)Man(a1-3)]Man(b1-4)GlcNAc(b1-4)[Fuc(a1-6)]GlcNAc
# Method in brief: as §1
# [12] = biological target: Gal(b1-4)GlcNAc(b1-3)Gal(b1-4)GlcNAc(b1-3)Gal(b1-4)GlcNAc
# Method in brief: as §1
# [13] = biological target: Gal(b1-4)GlcNAc(b1-3)Gal(b1-4)GlcNAc(b1-3)Gal(b1-4)GlcNAc(b1-2)Man(a1-3)[Gal(b1-4)GlcNAc(b1-3)Gal(b1-4)GlcNAc(b1-3)Gal(b1-4)GlcNAc(b1-2)Man(a1-6)]Man(b1-4)GlcNAc(b1-4)GlcNAc
# Method in brief: as §1
# [14] = biological target: Gal(b1-4)GlcNAc(b1-3)Gal(b1-4)GlcNAc(b1-3)Gal(b1-4)GlcNAc(b1-2)Man(a1-3)[Gal(b1-4)GlcNAc(b1-3)Gal(b1-4)GlcNAc(b1-3)Gal(b1-4)GlcNAc(b1-2)Man(a1-6)]Man(b1-4)GlcNAc(b1-4)[Fuc(a1-6)]GlcNAc
# Method in brief: as §1
# [15] = biological target: Gal(b1-4)GlcNAc(b1-3)Gal(b1-4)GlcNAc(b1-3)Gal(b1-4)GlcNAc(b1-2)[Gal(b1-4)GlcNAc(b1-3)Gal(b1-4)GlcNAc(b1-3)Gal(b1-4)GlcNAc(b1-6)]Man(a1-6)[Gal(b1-4)GlcNAc(b1-3)Gal(b1-4)GlcNAc(b1-3)Gal(b1-4)GlcNAc(b1-2)Man(a1-3)]Man(b1-4)GlcNAc(b1-4)[Fuc(a1-6)]GlcNAc
# Method in brief: as §1
# [16] = biological target: Gal(b1-4)GlcNAc(b1-3)Gal(b1-4)GlcNAc(b1-3)Gal(b1-4)GlcNAc(b1-3)Gal(b1-4)GlcNAc(b1-2)Man(a1-3)[Gal(b1-4)GlcNAc(b1-3)Gal(b1-4)GlcNAc(b1-3)Gal(b1-4)GlcNAc(b1-3)Gal(b1-4)GlcNAc(b1-2)Man(a1-6)]Man(b1-4)GlcNAc(b1-4)GlcNAc
# Method in brief: as §1
# [17] = biological target: Gal(b1-4)GlcNAc(b1-3)Gal(b1-4)GlcNAc(b1-3)Gal(b1-4)GlcNAc(b1-3)Gal(b1-4)GlcNAc(b1-2)Man(a1-3)[Gal(b1-4)GlcNAc(b1-3)Gal(b1-4)GlcNAc(b1-3)Gal(b1-4)GlcNAc(b1-3)Gal(b1-4)GlcNAc(b1-2)Man(a1-6)]Man(b1-4)GlcNAc(b1-4)[Fuc(a1-6)]GlcNAc
# Method in brief: as §1
# [18] = biological target: Gal(b1-4)GlcNAc(b1-3)Gal(b1-4)GlcNAc(b1-3)Gal(b1-4)GlcNAc(b1-3)Gal(b1-4)GlcNAc(b1-2)[Gal(b1-4)GlcNAc(b1-3)Gal(b1-4)GlcNAc(b1-3)Gal(b1-4)GlcNAc(b1-3)Gal(b1-4)GlcNAc(b1-6)]Man(a1-6)[Gal(b1-4)GlcNAc(b1-3)Gal(b1-4)GlcNAc(b1-3)Gal(b1-4)GlcNAc(b1-3)Gal(b1-4)GlcNAc(b1-2)Man(a1-3)]Man(b1-4)GlcNAc(b1-4)[Fuc(a1-6)]GlcNAc
# Method in brief: as §1
# [19] = biological target: Gal(b1-4)GlcNAc(b1-3)Gal(b1-4)GlcNAc(b1-3)Gal(b1-4)GlcNAc(b1-3)Gal(b1-4)GlcNAc(b1-3)Gal(b1-4)GlcNAc(b1-2)Man(a1-3)[Gal(b1-4)GlcNAc(b1-3)Gal(b1-4)GlcNAc(b1-3)Gal(b1-4)GlcNAc(b1-3)Gal(b1-4)GlcNAc(b1-3)Gal(b1-4)GlcNAc(b1-2)Man(a1-6)]Man(b1-4)GlcNAc(b1-4)GlcNAc
# Method in brief: as §1
# [20] = biological target: Gal(b1-4)GlcNAc(b1-3)Gal(b1-4)GlcNAc(b1-3)Gal(b1-4)GlcNAc(b1-3)Gal(b1-4)GlcNAc(b1-3)Gal(b1-4)GlcNAc(b1-2)Man(a1-3)[Gal(b1-4)GlcNAc(b1-3)Gal(b1-4)GlcNAc(b1-3)Gal(b1-4)GlcNAc(b1-3)Gal(b1-4)GlcNAc(b1-3)Gal(b1-4)GlcNAc(b1-2)Man(a1-6)]Man(b1-4)GlcNAc(b1-4)[Fuc(a1-6)]GlcNAc
# Method in brief: as §1
# [21] = biological target: Gal(b1-4)GlcNAc(b1-3)Gal(b1-4)GlcNAc(b1-3)Gal(b1-4)GlcNAc(b1-3)Gal(b1-4)GlcNAc(b1-3)Gal(b1-4)GlcNAc(b1-2)[Gal(b1-4)GlcNAc(b1-3)Gal(b1-4)GlcNAc(b1-3)Gal(b1-4)GlcNAc(b1-3)Gal(b1-4)GlcNAc(b1-3)Gal(b1-4)GlcNAc(b1-6)]Man(a1-6)[Gal(b1-4)GlcNAc(b1-3)Gal(b1-4)GlcNAc(b1-3)Gal(b1-4)GlcNAc(b1-3)Gal(b1-4)GlcNAc(b1-3)Gal(b1-4)GlcNAc(b1-2)Man(a1-3)]Man(b1-4)GlcNAc(b1-4)[Fuc(a1-6)]GlcNAc
# Method in brief: as §1
# [22] = biological target: Gal(b1-4)GlcNAc(b1-3)Gal(b1-4)GlcNAc(b1-3)Gal(b1-4)GlcNAc(b1-3)Gal(b1-4)GlcNAc(b1-3)Gal(b1-4)GlcNAc(b1-3)Gal(b1-4)GlcNAc(b1-2)Man(a1-3)[Gal(b1-4)GlcNAc(b1-3)Gal(b1-4)GlcNAc(b1-3)Gal(b1-4)GlcNAc(b1-3)Gal(b1-4)GlcNAc(b1-3)Gal(b1-4)GlcNAc(b1-3)Gal(b1-4)GlcNAc(b1-2)Man(a1-6)]Man(b1-4)GlcNAc(b1-4)GlcNAc
# Method in brief: as §1
# [23] = biological target: Gal(b1-4)GlcNAc(b1-3)Gal(b1-4)GlcNAc(b1-3)GalNAc
# Method in brief: as §1
binder,measurement,setting,value
B1,glycan array binding signal (z-score),[1],-0.175
same,glycan array binding signal (z-score),[2],-0.217
same,glycan array binding signal (z-score),[3],-0.2
same,glycan array binding signal (z-score),[4],-0.186
same,glycan array binding signal (z-score),[5],-0.175
same,glycan array binding signal (z-score),[6],-0.117
same,glycan array binding signal (z-score),[7],-0.197
same,glycan array binding signal (z-score),[8],-0.004
same,glycan array binding signal (z-score),[9],-0.219
same,glycan array binding signal (z-score),[10],0.189
same,glycan array binding signal (z-score),[11],-0.12
same,glycan array binding signal (z-score),[12],-0.22
same,glycan array binding signal (z-score),[13],-0.071
same,glycan array binding signal (z-score),[14],-0.164
same,glycan array binding signal (z-score),[15],-0.141
same,glycan array binding signal (z-score),[16],-0.186
same,glycan array binding signal (z-score),[17],-0.178
same,glycan array binding signal (z-score),[18],-0.164
same,glycan array binding signal (z-score),[19],-0.17
same,glycan array binding signal (z-score),[20],-0.139
same,glycan array binding signal (z-score),[21],-0.112
same,glycan array binding signal (z-score),[22],-0.142
same,glycan array binding signal (z-score),[23],-0.093
